In paper PMC4336329 (PLoS ONE, 2015):
In all, about 310,000 compounds went through this assay and about 2,200 (0.71%) showed an effect of 50% or more. Effects have a minus sign here. Some of the results follow.

Each molecule was assayed against human ether-à-go-go-related gene (hERG) potassium channel (human, UniProt Q12809) (assay: primary screen, population patch clamp on CHO cells stably expressing hERG).
Sequence of human ether-à-go-go-related gene (hERG) potassium channel (Q12809 whole entry, looked up): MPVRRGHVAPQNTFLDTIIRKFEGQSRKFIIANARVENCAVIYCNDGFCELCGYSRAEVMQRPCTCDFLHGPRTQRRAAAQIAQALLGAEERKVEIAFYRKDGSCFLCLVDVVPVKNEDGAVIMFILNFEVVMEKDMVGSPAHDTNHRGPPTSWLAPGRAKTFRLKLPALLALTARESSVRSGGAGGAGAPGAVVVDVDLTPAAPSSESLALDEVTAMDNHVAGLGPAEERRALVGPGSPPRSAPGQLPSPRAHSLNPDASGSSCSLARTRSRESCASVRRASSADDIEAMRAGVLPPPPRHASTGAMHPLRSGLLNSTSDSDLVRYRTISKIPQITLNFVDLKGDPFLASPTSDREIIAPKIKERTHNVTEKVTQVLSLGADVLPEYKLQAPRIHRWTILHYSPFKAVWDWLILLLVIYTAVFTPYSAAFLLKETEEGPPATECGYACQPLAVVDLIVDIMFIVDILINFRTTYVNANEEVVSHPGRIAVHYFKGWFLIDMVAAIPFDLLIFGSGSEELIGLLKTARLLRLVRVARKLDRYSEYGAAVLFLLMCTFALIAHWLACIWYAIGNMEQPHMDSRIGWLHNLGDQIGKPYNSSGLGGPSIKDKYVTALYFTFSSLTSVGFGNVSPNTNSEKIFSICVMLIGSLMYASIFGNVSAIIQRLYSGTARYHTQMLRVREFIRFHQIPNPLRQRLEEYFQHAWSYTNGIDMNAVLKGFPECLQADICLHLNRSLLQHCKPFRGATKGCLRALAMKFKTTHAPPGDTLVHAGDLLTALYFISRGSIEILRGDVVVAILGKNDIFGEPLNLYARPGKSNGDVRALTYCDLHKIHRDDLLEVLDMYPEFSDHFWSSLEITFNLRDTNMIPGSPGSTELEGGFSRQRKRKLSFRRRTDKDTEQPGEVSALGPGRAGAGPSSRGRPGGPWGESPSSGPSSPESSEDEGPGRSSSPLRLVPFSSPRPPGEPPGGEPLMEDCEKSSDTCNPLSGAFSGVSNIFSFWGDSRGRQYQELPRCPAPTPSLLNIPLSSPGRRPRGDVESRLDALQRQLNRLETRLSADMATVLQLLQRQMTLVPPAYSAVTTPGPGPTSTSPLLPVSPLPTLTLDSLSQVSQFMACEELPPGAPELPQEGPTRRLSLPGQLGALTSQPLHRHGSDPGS

Compound | hERG current change (%, negative = inhibition) at 1uM
CCC1(CC)NC(=O)N(CC(=O)NCc2ccc3c(c2)OCO3)C1=O | 13.2%
Cc1ccc(C)c(CN2CCC(CNC(=O)Nc3ccc(C)c(C)c3)CC2)c1 | -42.8%
CN(C)CC(O)COc1cc2ccccc2cc1C(=O)N1CCCCC1 (stereo not drawn) | -13.7%
COc1cc(S(=O)(=O)N2CCCCC2)ccc1NC(=O)c1ccc(F)cc1 | -19.8%
CC(OC(=O)c1cc(=O)[nH]c2ccccc12)C(=O)c1ccccc1 (stereo not drawn) | -8.39%
CN1CCN(Cc2c(O)ccc3c(=O)c(Oc4ccccc4Cl)c(C(F)(F)F)oc23)CC1 | 6.95%
Cc1cc(C)cc(NC(=O)CN(c2ccc(F)cc2)S(C)(=O)=O)c1 | 12.9%
O=C(c1cc(Cl)ccc1Cl)N1CCOCC1 | 14.6%
COC(CNC(=O)C1CCCN(S(=O)(=O)c2ccc3c(c2)oc(=O)n3C)C1)OC (stereo not drawn) | 14.1%
Cc1c(NS(=O)(=O)c2ccccc2)c(=O)n(-c2ccccc2)n1C | 20.8%
COc1ccc(CCCc2nnc(SCc3nc4ccccc4c(=O)[nH]3)n2C)c(C)c1 | -10.2%
CCc1cccc(C)c1NC(=O)COC(=O)CNC(=O)c1cccs1 | 15.1%
O=C(O)c1ccc(Nc2nc(-c3ccc([N+](=O)[O-])cc3)nc3ccccc23)cc1 | 14.5%
O=C(COC(=O)CSc1ccc([N+](=O)[O-])cc1)NCCC1=CCCCC1 | 10.7%
Cn1nc([N+](=O)[O-])nc1Oc1ccccc1N | 9.33%
CCn1cc(/C=N/N=C2\CCC3C4CCc5cc(O)ccc5C4CC[C@]23C)c(C)n1 (stereo partly drawn) | 0.859%
COc1ccc(CNC(=O)CN(c2ccc(C(C)C)cc2)S(=O)(=O)c2c(C)noc2C)cc1 | 19.9%
Fc1ccc(NC(=S)NCc2ccccc2)cc1 | 10.4%
Cc1ccccc1N1CCN(C(=S)c2ccc(-c3cccc([N+](=O)[O-])c3)o2)CC1 | 14.8%
COc1cccc2sc(N(CCCN(C)C)C(=O)COc3ccc(Cl)cc3)nc12.Cl | -68.9%
Cc1cc(-c2ccccc2)c(C#N)c(SCC(N)=O)n1 | 4.39%
O=c1c2ccccc2nc2n1C(CSc1ccc(Br)cc1)CN2 (stereo not drawn) | 2.38%

Compound | hERG current change (%, negative = inhibition) at 1uM
Fc1ccc(-n2nnc(-c3ccccc3Br)n2)cc1 | 8.84%
Cl.NCCc1ccc(OCc2ccccc2)c(OCc2ccccc2)c1 | 4.25%
COc1cc(OC)c(C(=O)Nc2cccc3ccccc23)cc1OC | 15.7%
CCc1noc(C)c1C(=O)N1CCN(S(=O)(=O)c2c(C)c(C)cc(C)c2C)CC1 | 8.76%
COCc1ccc(C(=O)N2CCCCC2C(=O)Nc2ccc(-n3nc(C)cc3C)cc2)o1 (stereo not drawn) | 9.86%
Cn1c(N)c(C(=O)COC(=O)/C=C/c2ccc(OC(F)F)cc2)c(=O)n(C)c1=O | 20.4%
CCOC(=O)c1ccc(NC(=O)C2CC3CCC2C3)cc1 (stereo not drawn) | 8.73%
CN(C(=O)COC(=O)c1ccccc1NC(=O)c1ccco1)C1CCS(=O)(=O)C1 (stereo not drawn) | -6.78%
Cc1ccc(CSCCNC(=O)CN2C(=O)c3ccccc3S2(=O)=O)cc1 | 8.76%
CC(C)c1[nH]nc2c1C1(CCN(Cc3ccccc3)CC1)C(C#N)=C(N)O2 | -14%
COc1cc(S(=O)(=O)N2CCN3CCCC3C2)ccc1-n1cnnn1 (stereo not drawn) | 8.83%
Cc1nn(-c2ccccc2)c(=O)c2ccccc12 | 15.6%
CCn1ccnc1CN1CCc2c([nH]c3ccccc23)C1C1CCCCC1 (stereo not drawn) | 4.47%
CCO[C@H]1OC(C(=O)N2CCN(C)CC2)=C[C@@H](C2CC2)[C@@H]1CCCO | 15.5%
Cc1c(NC(=O)c2ccc(N3CCCC3)c([N+](=O)[O-])c2)cccc1-c1nc2ccccc2s1 | 8.95%
CCNC(=S)N1CCn2cccc2C1c1cccnc1 (stereo not drawn) | 4.02%
CC(=O)OC1N=C(c2ccc(Cl)cc2)c2cc(Br)ccc2NC1=O (stereo not drawn) | 0.259%
O=C(C1CCN(c2nnc(-n3cccc3)s2)CC1)N1CCCCC1 | 7.57%
CCOCCCNS(=O)(=O)c1ccc(NC(=O)Cc2c(F)cccc2Cl)cc1 | 9.48%
COc1cccc(CN=CC2=C(O)CC(C)(C)CC2=O)c1OC | 4.98%
Cc1ccc(S(=O)(=O)Nc2cccc3cccnc23)c([N+](=O)[O-])c1 | 12.5%
CC(NC(=O)C(=O)N/N=C/c1ccccc1)c1ccccc1 (stereo not drawn) | 15.4%

Compound | hERG current change (%, negative = inhibition) at 1uM
CC(NC(=O)COC(=O)c1ccc2c(c1)OCO2)c1ccccc1 (stereo not drawn) | 8.7%
Cc1ccc(C)c(SCC(=O)OCC(=O)NCc2ccccc2)c1 | 9.47%
CCC(C)NC(=O)C1c2cc(OC)c(OC)cc2C(=O)N(C)C1c1ccc(OC)cc1 (stereo not drawn) | 1.95%
O=C(Nc1csnn1)c1csnn1 | 14.4%
Cc1ccc(C(=O)NNC(=O)c2ccc(SCC3CCCO3)c([N+](=O)[O-])c2)cc1 (stereo not drawn) | 5.2%
Cc1ccc(NS(=O)(=O)c2csc(C(N)=O)c2)c(C)c1 | 31.1%
COc1ccc(C(=O)NCC(=O)N/N=C/C=C/c2ccccc2)cc1OC | -35.7%
CCN(CC)S(=O)(=O)c1ccc(Cl)c(NC(=O)COC(=O)c2ccc(O)cc2)c1 | -4.92%
Cc1ccc(Cl)cc1NC(=O)C1CCCN(c2cnccn2)C1 (stereo not drawn) | 5.5%
O=C(COC(=O)Cc1c(F)cccc1Cl)NC(=O)c1ccccc1 | 10.4%
O=C(c1ccncc1)N(c1ccc2oc3c(c2c1)CCCC3)S(=O)(=O)c1cccc([N+](=O)[O-])c1 | 2.86%
CC1=C2[C@H]3OC(=O)[C@@H](C)[C@@H]3CC[C@@]2(C)C=CC1=O | 10.6%
C=CCn1c(SCC(=O)O)nnc1-c1ccccc1 | -8.04%
N#CC1=C(N)Oc2n[nH]c(-c3cccs3)c2C1c1ccsc1 (stereo not drawn) | 7.12%
Cc1ccc(Cl)cc1N1CCN(C(=O)CCS(=O)(=O)c2cccc3nonc23)CC1 | -0.669%
O=S1(=O)N(Cc2ccc(F)cc2)CCCN1Cc1ccccc1Cl | 3.85%
COc1ccc(S(=O)(=O)N2CCc3ccccc32)cc1OC | 7.38%
Cc1nn(CC(=O)N2c3ccccc3NC(=O)C2(C)C)c(C)c1[N+](=O)[O-] | 17.4%
CC(C)(C)CC(C)(C)Nc1c(-c2ccc(O)cc2)nc2cnccn12 | 2.55%
CCOc1ccc(C(=O)OC(C)CN2CCCCC2)cc1.Cl (stereo not drawn) | 4.48%
C=CCNc1nc(N)c(C(=C(C#N)C#N)c2ccccc2)s1 | 22%
Nc1nc(C2CCCN2S(=O)(=O)c2ccc(Cl)cc2)cs1 (stereo not drawn) | 2.44%

Compound | hERG current change (%, negative = inhibition) at 1uM
CC(=O)N(C)c1ccc(NCc2cc(=O)oc3cc(C)c(O)cc23)cc1 | -4.96%
COc1cc2[nH]cc(C(=O)NCc3cccs3)c(=O)c2cc1OC | 4.55%
NC(=O)c1oc2ccccc2c1NC(=O)CCc1ccccc1 | 7.35%
Cc1cc(C)c(-c2c(O)c3cnn(-c4ccccc4)c3[nH]c2=O)c(C)c1 | 12.9%
Cc1cc(C)cc(N2C(=O)CC(N(C(=O)c3ccco3)c3cc(C)cc(C)c3)C2=O)c1 (stereo not drawn) | 5.58%
Cc1ccc(C(=O)Nn2cnnc2)c(Cl)c1 | 11.5%
O=C(NCc1ccco1)C1CCN(C(=O)c2ccc(Cl)cc2Cl)CC1 | 8.2%
O=C(Nc1ccc(Cl)cc1)N(Cc1cccnc1)Cc1ccco1 | -21.8%
O=C(O)c1c[nH]c2c(C(F)(F)F)cccc2c1=O | 3.38%
Cc1onc(-c2ccccc2Cl)c1C(=O)Nc1ccc(-n2nncc2C(C)(C)C)cc1 | 4.52%
CC1CCCC(NC(=O)COC(=O)c2cccs2)C1C (stereo not drawn) | 10.7%
O=[N+]([O-])c1ncccc1OCc1ccccc1Br | 6.25%
CCOc1ccc(Nc2nc(N)nc(CN3CCN(c4ccccc4F)CC3)n2)cc1 | -25.6%
O=C(Nc1ccc(N2CCOCC2)cc1)C1CCN(C(=O)OCc2ccccc2)CC1 | 10.7%
Cc1ccc(N(CC(=O)NCc2ccccc2Cl)S(=O)(=O)c2c(C)noc2C)cc1 | 13.1%
CCCC(C(=O)NC1CCCC1)N(Cc1ccccc1Cl)C(=O)c1snc(C(N)=O)c1N (stereo not drawn) | 8.74%
O=C(N/N=C/c1c(O)n(Cc2ccc(F)cc2)c(=O)[nH]c1=O)c1ccccc1 | 3.75%
CCc1c(C(=O)Nc2cc(C(=O)OC)ccc2C)csc1C | 4.87%
O=C(N/N=C/c1ccco1)c1cc(-c2ccccc2)n[nH]1 | -0.0654%
Cc1nn(C)cc1CN(C)C(=O)c1ccc(OC2CCN(Cc3ccccn3)CC2)cc1 | 12.5%
Cc1sc2ncn(CC(=O)NCC(=O)N(C)C3CCCCC3)c(=O)c2c1C | -9.12%
